Biological target: T1, biotinylated human IL-2Rα extracellular domain (residues 1-214) (human, UniProt P01589 22-240, biotinylated on the C-terminal biotin acceptor peptide with BirA ligase)
T1 construct: extracellular domain; also called hIL-2Rα; immobilized IL-2Rα; not shown: hexahistidine tag (Ni-NTA purification)
T1 sequence: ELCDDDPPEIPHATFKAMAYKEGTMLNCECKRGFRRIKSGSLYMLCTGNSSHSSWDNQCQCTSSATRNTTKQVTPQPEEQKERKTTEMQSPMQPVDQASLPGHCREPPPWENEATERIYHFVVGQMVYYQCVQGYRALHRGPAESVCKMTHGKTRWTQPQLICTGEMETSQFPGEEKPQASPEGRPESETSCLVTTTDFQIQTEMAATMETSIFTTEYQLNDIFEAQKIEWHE
Experiment: bio-layer interferometry equilibrium titration, biotinylated IL-2Rα on streptavidin tips
Method: Less than 5 signal units (nm) of receptor was immobilized to minimize mass transfer effects. […] Surface regeneration for all interactions was conducted using a 15 second exposure to 0.1 M glycine pH 3.0. Experiments were carried out in PB SA (phosphate-buffered saline, pH 7.3 plus 0.1% bovine serum albumin (BSA, Thermo Fisher Scientific)) at 25° C. Data was visualized and processed using the Octet® Data Analysis software version 7.1 (Molecular Devices). Equilibrium titration curve fitting and KD value determination was implemented using GraphPad Prism, assuming all binding interactions to be first order.

B1: F5111 IC LN15 (hIL-2 fused by a (Gly4Ser)3 linker to the N-terminus of the F5111 light chain) (other)
heavy: QLQLQESGPGLVKPSQTLSLTCTVSGGSISSGGYYWSWIRQHPGKGLEWIGYIYYSGSTYYNPSLKSRVTISVDTSKNQFSLKLSSVTAADTAVYYCARTPTVTGDWFDPWGRGTLVTVSS[here human IgG1 constant region without letters]
light: [here about 150 residues without letters]GGGGSGGGGSGGGGSNFMLTQPHSVSESPGKTVTISCTRSSGSIASNYVQWYQQRPGSSPTTVIYEDNQRPSGVPDRFSGSIDSSSNSASLTISGLKTEDEADYYCQSYDSSNVVFGGGTKLTVLGQPKAAPSVTLFPPSSEELQANKATLVCLISDFYPGAVTVAWKADSSPVKAGVETTTPSKQSNNKYAASSYLSLTPEQWKSHRSYSCQVTHEGSTVEKTVAPTECS
notes: Antibody-cytokine fusion (immunocytokine); also called F5111 immunocytokine LN15; single-chain IL-2/F5111 IC
B1 was tested, and the “EC50 (read off the curve)” value was roughly 6 nM.

Source: US20220242946A1 (Johns Hopkins, published 2022)
